Assay results taken from PubChem BioAssay AID1347073 (National Center for Advancing Translational Sciences (NCATS), 2019).
In all, about 45,000 compounds went through this assay and about 200 (0.44%) were called active. The inconclusive results got no clear call from the source; some entries with a clear call stand among them for comparison. The call rests on the fitted dose curve; in most records, active means well fitted activation curve with a large enough effect; inconclusive means small, poorly fitted or top-dose-only effect; inactive means no such curve, though single readings can be large or run the other way. Potencies of inconclusive entries are doubtful fits and often do not repeat.

Assay: qHTS of TDP-43 Inhibitors: NCGC Sytravon Library Screen; further: nearly all actives have a fitted effect of over 55% in size; on growth rescue (activation): 0% is about no effect
Conditions: yeast TDP-43 toxicity rescue, BacTiter-Glo growth, 24 h; growth rescue (activation): at 46.1 µM (top of the series)
In short: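 TDP-43-expressing yeast, pregrown in raffinose, seeded at OD600 0.02 in galactose medium with compound for 24 hr at 30 deg C. Growth read by BacTiter-Glo luminescence, so rescue of toxicity appears as activation.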
Potency means the concentration at half of the fitted maximal effect; tags describe the fitted curve by direction and shape.

SMILES	growth rescue (activation)	Potency
CC(C)(C)c1ccc(CN2C(=O)c3ccccc3S2(=O)=O)cc1	inactive: -10.6%	–
CCCC(=O)NC(=S)Nc1cccc(NC(=O)c2ccccc2Cl)c1	–	inconclusive: 20 µM [activator, partial curve, poor fit]
Cc1ccc(Cl)cc1NC(=S)N(CCN(C)C)Cc1cccs1	inactive: 18.7%	–
O=C(CCS(=O)(=O)c1ccc(Cl)cc1)Nc1ccc(N2CCOCC2)cc1	–	inconclusive: 35.5 µM [activator, single point]
Cn1c(Cc2cccc3ccccc23)nnc1SCc1ccc([N+](=O)[O-])cc1	–	inconclusive: 28.2 µM [activator, single point]
CCCS(=O)(=O)NC(=O)C1(C)CCCN(C(=O)c2ccc(C#N)cc2)C1 (stereo not drawn)	inactive: 9.98%	–
N#Cc1c(Nc2ccccc2)sc(C(=O)c2ccccc2)c1N	–	inconclusive: 11.2 µM [activator, partial curve, poor fit]
CNC(=S)SCCOc1ccccc1	–	inconclusive: 11.2 µM [activator, single point]
CCn1cc(C(=O)OCC(=O)c2cc(C)n(-c3ccccc3)c2C)c(=O)c2ccc(C)nc21	–	inconclusive: 35.5 µM [activator, single point]
COc1ccccc1N1CCN(C(=O)c2cc3cc(F)ccc3[nH]2)CC1	–	inconclusive: 12.6 µM [activator, partial curve, poor fit]
COc1ccc(NC(=S)N2CCC(c3ccc(C)cc3)C2)cc1 (stereo not drawn)	–	inconclusive: 12.6 µM [activator, partial curve, poor fit]
CCOCCCNC(=O)Cn1ncc2c([nH]c3ccc(C)cc32)c1=O	inactive: 5.19%	–
CN(Cc1ccccc1F)C(=O)COc1ccc(C(=O)c2ccccc2)cc1	–	inconclusive: 11.2 µM [activator, single point]
NC(=S)NN=C1c2cc(OCCN3CCOCC3)ccc2-c2ccc(OCCN3CCOCC3)cc21	inactive: -6.94%	–
C=CCn1c(SCC(=O)NCC)nc2sc3c(c2c1=O)CCC3	inactive: 9.26%	–
CSc1ccc(CNc2nc3ccccc3n3cnnc23)cc1	–	inconclusive: 35.5 µM [activator, single point]
COc1ccccc1C1=NOC(COc2ccc3c(C)cc(=O)oc3c2)C1 (stereo not drawn)	–	inconclusive: 35.5 µM [activator, partial curve, poor fit]
Cc1cc(C)nc(NC(=NCCc2c[nH]c3ccccc23)NC(=O)Nc2ccccc2)n1	–	inconclusive: 15.8 µM [activator, single point]
CCc1ccccc1NC(=O)CCCN1C(=O)COc2ccc(C)cc21	–	inconclusive: 15.8 µM [activator, single point]
O=C(c1ccc2c(=O)n3c(nc2c1)CCCCC3)N1CCN(c2ccc(F)cc2)CC1	–	inconclusive: 22.4 µM [activator, single point]
O=C(COc1ccc(C(=O)c2ccccc2)cc1)NCC1CCCCC1	–	inconclusive: 25.1 µM [activator, single point]
COCCNC(=O)c1c(N)n(CCC2=CCCCC2)c2nc3ccccc3nc12	–	inconclusive: 35.5 µM [activator, partial curve, poor fit]
Cc1ccc(-c2csc(C(O)(c3ccccc3)C(F)(F)F)n2)cc1C (stereo not drawn)	inconclusive: -91.4% [activator]	–

SMILES	growth rescue (activation)	Potency
CN(C)CCCNc1nc2cc(-c3ccc(C(=O)N4CCN(C)CC4)cc3)sc2c(=O)n1C	inconclusive: 42.1% [activator]	–
Cc1nc2cc(C(=O)NCc3ccc4c(c3)OCO4)ccc2n1-c1ccc(Br)cc1	–	inconclusive: 12.6 µM [activator, single point]
Cc1nn(-c2ccccc2)c(Cl)c1/C=N/NC(=O)CCNc1n[nH]c(=O)[nH]c1=O	inactive: 5.91%	–
CC(=O)Nc1ccc(NC(=O)C2Cc3c(-c4cccc(C(C)=O)c4)ccnc3O2)cc1 (stereo not drawn)	inactive: -4.56%	–
CC(C)COc1ccc(C(=O)N/C(=C\c2cccc([N+](=O)[O-])c2)C(=O)O)cc1	–	inconclusive: 22.4 µM [activator, partial curve, poor fit]
COc1ccc(NC(=O)CN(C)C(=O)C2(c3ccccc3)CCCC2)cc1	–	inconclusive: 11.2 µM [activator, single point]
CC(C)CNc1ncnc2c1cnn2Cc1ccccc1Cl	–	inconclusive: 14.1 µM [activator, partial curve]
COCCn1c(SCC(=O)N2CCc3ccccc3C2)nc2ccccc2c1=O	–	inconclusive: 11.2 µM [activator, partial curve, poor fit]
COc1ccc(N2CCN(C(=O)c3ccccc3N(C)S(=O)(=O)c3ccc(C)cc3)CC2)cc1	–	inconclusive: 2 µM [activator, partial curve, poor fit]
COc1ccccc1NC(=S)N(Cc1ccc(Cl)cc1)CC1CCC(C(=O)O)CC1 (stereo not drawn)	–	inconclusive: 35.5 µM [activator, single point]
Cc1cccc(CNC(=O)CCCN2C(=O)COc3ccc(C)cc32)c1	–	inconclusive: 15.8 µM [activator, single point]
NC1=NC(=Nc2cccc(S(=O)(=O)N3CCOCC3)c2)c2ccccc21	–	inconclusive: 25.1 µM [activator, partial curve, poor fit]
COc1ccc(C(=O)/C=C/c2cc(OC)c(O)c(OC)c2)c(F)c1	–	inconclusive: 22.4 µM [activator, partial curve, poor fit]
N#Cc1c(N2CCCCC2)nc(N)c2c(N)nc(SCC(=O)O)cc12	–	inconclusive: 25.1 µM [activator, single point]
O=C(/C=C/c1cccc([N+](=O)[O-])c1)NCCSCc1ccccc1Cl	–	inconclusive: 25.1 µM [activator, single point]
OC(c1ccccc1)c1nc(-c2cccc(F)c2)cs1 (stereo not drawn)	inconclusive: 130% [activator]	–
O=C(/C=C/NCc1ccc(F)cc1)c1ccccc1	–	inconclusive: 35.5 µM [activator, single point]
c1ccc(CCc2ccccc2-c2nc(-c3cccnc3)no2)cc1	–	inconclusive: 35.5 µM [activator, single point]
COc1ccc(OC)c(C(=O)c2coc3ccc(OC)cc23)c1	–	inconclusive: 15.8 µM [activator, partial curve, poor fit]
Cc1ccc(Cn2c(C)c3cnn(CC(=O)O)c(=O)c3c2C)cc1	inactive: 2.08%	–
COc1ccc(NC(=O)Cn2c(=O)n(CCCCCC(=O)NCc3ccc4c(c3)OCO4)c(=O)c3sccc32)cc1Cl	inactive: 3.71%	–
CC(=O)Nc1ccc(N2CCC(C)CC2)c([N+](=O)[O-])c1	–	inconclusive: 12.6 µM [activator, partial curve, poor fit]
CCCS(=O)(=O)c1nc(S(=O)(=O)c2ccc(C)cc2)c(NCCCOC(C)C)s1	inactive: -3.54%	–

SMILES	growth rescue (activation)	Potency
COc1ccc(-c2nnnn2-c2ccc(F)cc2F)cc1	–	inconclusive: 12.6 µM [activator, partial curve, poor fit]
CCOc1cc(N2CCOCC2)c(OCC)cc1NC(=O)C(C)Oc1ccccc1 (stereo not drawn)	inconclusive: 64% [activator]	–
CC(=O)c1ccc(S(=O)(=O)Oc2ccc(C(=O)O)cc2Cl)cc1	inactive: 6.9%	–
CC(Sc1nnnn1-c1ccccc1)C(=O)Nc1ccccc1-c1ccccc1 (stereo not drawn)	–	inconclusive: 12.6 µM [activator, partial curve, poor fit]
C=CCC(C(=O)OC)(C(=O)OC)c1ccccc1[N+](=O)[O-]	inactive: 8.38%	–
CN1CCN(S(=O)(=O)c2ccc(Sc3nnnn3-c3ccccc3)c([N+](=O)[O-])c2)CC1	inactive: 14.7%	–
CC(=O)c1ccc(NC(=O)CSc2nnc(-c3ccco3)o2)cc1	inactive: 20.3%	–
COc1ccc(CN(C)C(=S)Nc2ccc(OC(F)F)cc2)cc1	–	inconclusive: 12.6 µM [activator, single point]
O=C(Nc1ccc2c(c1)OCO2)c1cc(C2CCCCN2S(=O)(=O)c2cccs2)on1 (stereo not drawn)	–	inconclusive: 20 µM [activator, partial curve, poor fit]
COc1ccc(NC(=O)c2cc(-c3cc(Cl)ccc3OC)n[nH]2)c(C)c1	inconclusive: 75.2% [activator]	–
CCCCCn1cnnc1SCC(=O)c1c(N)n(C2CC2)c(=O)[nH]c1=O	inactive: 12%	–
CC(C)c1ccc(OCc2ccc(C(=O)O)o2)cc1	–	inconclusive: 15.8 µM [activator, single point]
CC(O)(c1ccccc1)c1nc(-c2cccc(C(=O)O)c2)cs1 (stereo not drawn)	inactive: -2.18%	–
CCOC(=O)N1CCN(C(=S)Nc2ccc(C)cc2)CC1	inactive: -4.48%	–
O=C(/N=C1/c2ccccc2CN1c1ccccc1)Nc1ccccc1	–	inconclusive: 12.6 µM [activator, single point]
COCCNC(=O)CN1C(=O)NC2(CCCc3ccccc32)C1=O (stereo not drawn)	inactive: -17.4%	–
COC(=O)c1c(NC(=O)CSc2ncnc3ccccc23)sc(C)c1C	inactive: 14.3%	–
O=C(COc1ccc(Cl)cc1)NCCSCc1ccccc1Cl	–	inconclusive: 35.5 µM [activator, single point]
O=S(=O)(Nc1nc2ccccc2nc1NCC1CCCO1)c1ccccc1 (stereo not drawn)	–	inconclusive: 14.1 µM [activator, single point]
COc1ccc(CCNS(=O)(=O)c2ccc(Cl)s2)cc1OC	–	inconclusive: 14.1 µM [activator, single point]
Cc1nc2ccc(NS(=O)(=O)c3c(F)cccc3F)cc2s1	–	inconclusive: 35.5 µM [activator, single point]
O=C(COC(=O)c1ccc([N+](=O)[O-])o1)NCc1ccccc1	–	inconclusive: 35.5 µM [activator, single point]
